# This is one part of the list.
# B1: SpnanA (Streptococcus pneumoniae), P62575 (protein)
# chain: MVIEKEDVETNASNGQRVDLSSELDKLKKLENATVHMEFKPDAKAPAFYNLFSVSSATKKDEYFTMAVYNNTATLEGRGSDGKQFYNNYNDAPLKVKPGQWNSVTFTVEKPTAELPKGRVRLYVNGVLSRTSLRSGNFIKDMPDVTHVQIGATKRANNTVWGSNLQIRNLTVYNRALTPEEVQKRS
# Columns and labels:
# Test in all cases: glycan array binding signal (z-score within array); higher = stronger binding
# Conditions in all cases: glycan notation: IUPAC condensed, linker removed
# [1] = molecular target: Neu5Ac(a2-3)Gal(b1-4)GlcNAc(b1-3)Gal(b1-4)GlcNAc(b1-3)Gal(b1-4)GlcNAc
# Procedure, shortened: (§1)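 Negative Z-scores can be read as non-binding. The Z-score is calculated within each array and then averaged across arrays of one protein sequence at different concentrations or buffers and across linkers. Arrays, 3228 in all, were curated from the Consortium for Functional Glycomics database and kept only where the protein sequence was available.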
# [2] = molecular target: Neu5Ac(a2-3)Gal(b1-4)GlcNAc(b1-3)Gal(b1-4)[Fuc(a1-3)]GlcNAc
# Procedure, shortened: as §1
# [3] = molecular target: Neu5Ac(a2-3)Gal(b1-4)GlcNAc(b1-3)GalNAc
# Procedure, shortened: as §1
# [4] = molecular target: Neu5Ac(a2-3)Gal(b1-4)GlcNAc(b1-3)[Neu5Ac(a2-3)Gal(b1-4)GlcNAc(b1-6)]GalNAc
# Procedure, shortened: as §1
# [5] = molecular target: Neu5Ac(a2-3)Gal(b1-4)GlcNAc(b1-6)GalNAc
# Procedure, shortened: as §1
# [6] = molecular target: Neu5Ac(a2-3)Gal(b1-4)GlcNAc(b1-6)[Gal(b1-3)]GalNAc
# Procedure, shortened: as §1
# [7] = molecular target: Neu5Ac(a2-3)Gal(b1-4)GlcNAc(b1-6)[Neu5Ac(a2-3)Gal(b1-3)]GalNAc
# Procedure, shortened: as §1
# [8] = molecular target: Neu5Ac(a2-3)Gal(b1-4)GlcNAc6S
# Procedure, shortened: as §1
# [9] = molecular target: Neu5Ac(a2-3)Gal(b1-4)[Fuc(a1-3)]GlcNAc
# Procedure, shortened: as §1
# [10] = molecular target: Neu5Ac(a2-3)Gal(b1-4)[Fuc(a1-3)]GlcNAc(b1-3)Gal
# Procedure, shortened: as §1
# [11] = molecular target: Neu5Ac(a2-3)Gal(b1-4)[Fuc(a1-3)]GlcNAc(b1-3)Gal(b1-4)GlcNAc
# Procedure, shortened: as §1
# [12] = molecular target: Neu5Ac(a2-3)Gal(b1-4)[Fuc(a1-3)]GlcNAc(b1-3)Gal(b1-4)[Fuc(a1-3)]GlcNAc(b1-3)Gal(b1-4)[Fuc(a1-3)]GlcNAc
# Procedure, shortened: as §1
# [13] = molecular target: Neu5Ac(a2-3)Gal(b1-4)[Fuc(a1-3)]GlcNAc(b1-3)GalNAc
# Procedure, shortened: as §1
# [14] = molecular target: Neu5Ac(a2-3)Gal(b1-4)[Fuc(a1-3)]GlcNAc(b1-6)[Gal(b1-3)]GalNAc
# Procedure, shortened: as §1
# [15] = molecular target: Neu5Ac(a2-3)Gal(b1-4)[Fuc(a1-3)]GlcNAc(b1-6)[Neu5Ac(a2-3)Gal(b1-3)]GalNAc
# Procedure, shortened: as §1
# [16] = molecular target: Neu5Ac(a2-3)Gal(b1-4)[Fuc(a1-3)]GlcNAc6S
# Procedure, shortened: as §1
# [17] = molecular target: Neu5Ac(a2-3)Gal6S(b1-4)GlcNAc
# Procedure, shortened: as §1
# [18] = molecular target: Neu5Ac(a2-3)Gal6S(b1-4)[Fuc(a1-3)]GlcNAc
# Procedure, shortened: as §1
# Neu5Ac(a2-3)GalNAc = molecular target: Neu5Ac(a2-3)GalNAc
# Procedure, shortened: as §1
# [19] = molecular target: Neu5Ac(a2-3)GalNAc(b1-4)GlcNAc
# Procedure, shortened: as §1
# [20] = molecular target: Neu5Ac(a2-3)[GalNAc(b1-4)]Gal(b1-4)Glc
# Procedure, shortened: as §1
# [21] = molecular target: Neu5Ac(a2-3)[GalNAc(b1-4)]Gal(b1-4)GlcNAc
# Procedure, shortened: as §1
# [22] = molecular target: Neu5Ac(a2-3)[GalNAc(b1-4)]Gal(b1-4)GlcNAc(b1-3)GalNAc
# Procedure, shortened: as §1
# [23] = molecular target: Neu5Ac(a2-3)[Neu5Ac(a2-6)]GalNAc
# Procedure, shortened: as §1
# Neu5Ac(a2-6)Gal = molecular target: Neu5Ac(a2-6)Gal
# Procedure, shortened: as §1
# [24] = molecular target: Neu5Ac(a2-6)Gal(b1-3)GlcNAc(b1-3)[Gal(b1-4)GlcNAc(b1-6)]Gal(b1-4)Glc
# Procedure, shortened: as §1
# Neu5Ac(a2-6)Gal(b1-4)Glc = molecular target: Neu5Ac(a2-6)Gal(b1-4)Glc
# Procedure, shortened: as §1
# [25] = molecular target: Neu5Ac(a2-6)Gal(b1-4)GlcNAc
# Procedure, shortened: as §1
# [26] = molecular target: Neu5Ac(a2-6)Gal(b1-4)GlcNAc(b1-2)Man(a1-3)Man(b1-4)GlcNAc(b1-4)GlcNAc
# Procedure, shortened: as §1
# [27] = molecular target: Neu5Ac(a2-6)Gal(b1-4)GlcNAc(b1-2)Man(a1-3)[Gal(b1-4)GlcNAc(b1-2)Man(a1-6)]Man(b1-4)GlcNAc(b1-4)GlcNAc
# Procedure, shortened: as §1
# [28] = molecular target: Neu5Ac(a2-6)Gal(b1-4)GlcNAc(b1-2)Man(a1-3)[GlcNAc(b1-2)Man(a1-6)]Man(b1-4)GlcNAc(b1-4)GlcNAc
# Procedure, shortened: as §1
# [29] = molecular target: Neu5Ac(a2-6)Gal(b1-4)GlcNAc(b1-2)Man(a1-3)[GlcNAc(b1-2)Man(b1-4)GlcNAc(b1-2)Man(a1-6)]Man(b1-4)GlcNAc(b1-4)GlcNAc
# Procedure, shortened: as §1
# [30] = molecular target: Neu5Ac(a2-6)Gal(b1-4)GlcNAc(b1-2)Man(a1-3)[Man(a1-6)]Man(b1-4)GlcNAc(b1-4)GlcNAc
# Procedure, shortened: as §1
# [31] = molecular target: Neu5Ac(a2-6)Gal(b1-4)GlcNAc(b1-2)Man(a1-3)[Neu5Ac(a2-6)Gal(b1-4)GlcNAc(b1-2)Man(a1-6)]Man(b1-4)GlcNAc(b1-4)GlcNAc
# Procedure, shortened: as §1
# [32] = molecular target: Neu5Ac(a2-6)Gal(b1-4)GlcNAc(b1-2)Man(a1-3)[Neu5Ac(a2-6)Gal(b1-4)GlcNAc(b1-2)Man(a1-6)]Man(b1-4)GlcNAc(b1-4)[Fuc(a1-6)]GlcNAc
# Procedure, shortened: as §1
# [33] = molecular target: Neu5Ac(a2-6)Gal(b1-4)GlcNAc(b1-2)Man(a1-6)Man(b1-4)GlcNAc(b1-4)GlcNAc
# Procedure, shortened: as §1
# [34] = molecular target: Neu5Ac(a2-6)Gal(b1-4)GlcNAc(b1-2)Man(a1-6)[Gal(b1-4)GlcNAc(b1-2)Man(a1-3)]Man(b1-4)GlcNAc(b1-4)GlcNAc
# Procedure, shortened: as §1
binder,measurement,setting,value
B1,glycan array binding signal (z-score),[1],1.52
same,glycan array binding signal (z-score),[2],-0.236
same,glycan array binding signal (z-score),[3],-0.047
same,glycan array binding signal (z-score),[4],0.179
same,glycan array binding signal (z-score),[5],-0.064
same,glycan array binding signal (z-score),[6],-0.172
same,glycan array binding signal (z-score),[7],0.233
same,glycan array binding signal (z-score),[8],3.89
same,glycan array binding signal (z-score),[9],0.549
same,glycan array binding signal (z-score),[10],0.859
same,glycan array binding signal (z-score),[11],0.351
same,glycan array binding signal (z-score),[12],-0.268
same,glycan array binding signal (z-score),[13],0.821
same,glycan array binding signal (z-score),[14],0.023
same,glycan array binding signal (z-score),[15],-0.011
same,glycan array binding signal (z-score),[16],1.2
same,glycan array binding signal (z-score),[17],2.91
same,glycan array binding signal (z-score),[18],2.44
same,glycan array binding signal (z-score),Neu5Ac(a2-3)GalNAc,0.541
same,glycan array binding signal (z-score),[19],0.228
same,glycan array binding signal (z-score),[20],-0.132
same,glycan array binding signal (z-score),[21],-0.04
same,glycan array binding signal (z-score),[22],-0.022
same,glycan array binding signal (z-score),[23],2.61
same,glycan array binding signal (z-score),Neu5Ac(a2-6)Gal,1.59
same,glycan array binding signal (z-score),[24],-0.258
same,glycan array binding signal (z-score),Neu5Ac(a2-6)Gal(b1-4)Glc,1.79
same,glycan array binding signal (z-score),[25],0.98
same,glycan array binding signal (z-score),[26],-0.032
same,glycan array binding signal (z-score),[27],-0.145
same,glycan array binding signal (z-score),[28],-0.228
same,glycan array binding signal (z-score),[29],1.58
same,glycan array binding signal (z-score),[30],-0.062
same,glycan array binding signal (z-score),[31],0.367
same,glycan array binding signal (z-score),[32],0.457
same,glycan array binding signal (z-score),[33],-0.102
same,glycan array binding signal (z-score),[34],-0.151

# — the supplement of paper PMC8728848
